# Measurements taken from a compilation of properties of binary mixtures (doi:10.1021/acs.jced.2c00096).
# Some of these densities may be calculated back from excess volumes.
# Experiment: xn = mol fraction of the nth substance listed
# Conditions: 100 kPa
smiles,measurement,setting,value
CCCC[N+]1(C)CCCC1.O=S(=O)([O-])C(F)(F)F + O,mass density,"288.15 K, x2 = 0.1203",1256.2 kg/m3
same,mass density,"288.15 K, x2 = 0.5819",1235 kg/m3
same,mass density,"288.15 K, x2 = 0.6794",1224.7 kg/m3
same,mass density,"288.15 K, x2 = 0.8612",1179.6 kg/m3
same,mass density,"293.15 K, x2 = 0.0597",1254 kg/m3
same,mass density,"293.15 K, x2 = 0.1203",1252.5 kg/m3
same,mass density,"293.15 K, x2 = 0.1956",1250.5 kg/m3
same,mass density,"293.15 K, x2 = 0.3766",1244 kg/m3
same,mass density,"293.15 K, x2 = 0.4836",1238.6 kg/m3
same,mass density,"293.15 K, x2 = 0.5819",1231.5 kg/m3
same,mass density,"293.15 K, x2 = 0.6794",1221.1 kg/m3
same,mass density,"293.15 K, x2 = 0.7673",1206.4 kg/m3
same,mass density,"293.15 K, x2 = 0.95",1106.1 kg/m3
same,mass density,"298.15 K, x2 = 0.1203",1248.9 kg/m3
same,mass density,"298.15 K, x2 = 0.3197",1242.6 kg/m3
same,mass density,"298.15 K, x2 = 0.4836",1234.8 kg/m3
same,mass density,"298.15 K, x2 = 0.5819",1227.6 kg/m3
same,mass density,"298.15 K, x2 = 0.8612",1172.1 kg/m3
same,mass density,"303.15 K, x2 = 0.0597",1246.7 kg/m3
same,mass density,"303.15 K, x2 = 0.1203",1245.3 kg/m3
same,mass density,"303.15 K, x2 = 0.1956",1243.2 kg/m3
same,mass density,"303.15 K, x2 = 0.3197",1238.9 kg/m3
same,mass density,"303.15 K, x2 = 0.4836",1230.9 kg/m3
same,mass density,"303.15 K, x2 = 0.5819",1223.7 kg/m3
same,mass density,"303.15 K, x2 = 0.6794",1213.3 kg/m3
same,mass density,"303.15 K, x2 = 0.7673",1198.6 kg/m3
same,mass density,"303.15 K, x2 = 0.8612",1168.4 kg/m3
same,mass density,"308.15 K, x2 = 0.3197",1235.2 kg/m3
same,mass density,"308.15 K, x2 = 0.5819",1219.8 kg/m3
same,mass density,"308.15 K, x2 = 0.6794",1209.4 kg/m3
same,mass density,"308.15 K, x2 = 0.7673",1194.7 kg/m3
same,mass density,"308.15 K, x2 = 0.8612",1164.7 kg/m3
same,mass density,"313.15 K, x2 = 0.0597",1239.5 kg/m3
same,mass density,"313.15 K, x2 = 0.1203",1238.1 kg/m3
same,mass density,"313.15 K, x2 = 0.3197",1231.6 kg/m3
same,mass density,"313.15 K, x2 = 0.3766",1229.1 kg/m3
same,mass density,"313.15 K, x2 = 0.4836",1223.4 kg/m3
same,mass density,"313.15 K, x2 = 0.6794",1205.3 kg/m3
same,mass density,"313.15 K, x2 = 0.7673",1190.6 kg/m3
same,mass density,"313.15 K, x2 = 0.8612",1160.6 kg/m3
same,mass density,"313.15 K, x2 = 0.95",1093.5 kg/m3
same,mass density,"318.15 K, x2 = 0.0597",1236 kg/m3
same,mass density,"318.15 K, x2 = 0.3766",1225.5 kg/m3
same,mass density,"318.15 K, x2 = 0.4836",1219.6 kg/m3
same,mass density,"318.15 K, x2 = 0.5819",1212.1 kg/m3
same,mass density,"318.15 K, x2 = 0.6794",1201.6 kg/m3
same,mass density,"318.15 K, x2 = 0.7673",1186.7 kg/m3
same,mass density,"318.15 K, x2 = 0.8612",1156.8 kg/m3
same,mass density,"323.15 K, x2 = 0.1203",1230.8 kg/m3
same,mass density,"323.15 K, x2 = 0.3197",1224.2 kg/m3
same,mass density,"323.15 K, x2 = 0.3766",1221.8 kg/m3
same,mass density,"323.15 K, x2 = 0.4836",1215.7 kg/m3
same,mass density,"323.15 K, x2 = 0.7673",1182.6 kg/m3
same,mass density,"323.15 K, x2 = 0.8612",1153 kg/m3
same,mass density,"328.15 K, x2 = 0.0597",1228.8 kg/m3
same,mass density,"328.15 K, x2 = 0.1203",1227.2 kg/m3
same,mass density,"328.15 K, x2 = 0.3197",1220.5 kg/m3
same,mass density,"328.15 K, x2 = 0.4836",1212.1 kg/m3
same,mass density,"328.15 K, x2 = 0.5819",1204.4 kg/m3
same,mass density,"328.15 K, x2 = 0.6794",1193.8 kg/m3
same,mass density,"328.15 K, x2 = 0.7673",1178.6 kg/m3
same,mass density,"328.15 K, x2 = 0.8612",1148.9 kg/m3
same,mass density,"333.15 K, x2 = 0.0597",1225.3 kg/m3
same,mass density,"333.15 K, x2 = 0.1203",1223.7 kg/m3
same,mass density,"333.15 K, x2 = 0.1956",1221.5 kg/m3
same,mass density,"333.15 K, x2 = 0.3197",1216.9 kg/m3
same,mass density,"333.15 K, x2 = 0.3766",1214.5 kg/m3
same,mass density,"333.15 K, x2 = 0.4836",1208.4 kg/m3
same,mass density,"333.15 K, x2 = 0.6794",1189.7 kg/m3
same,mass density,"333.15 K, x2 = 0.7673",1174.6 kg/m3
same,mass density,"333.15 K, x2 = 0.8612",1144.9 kg/m3
same,mass density,"333.15 K, x2 = 0.95",1079.8 kg/m3
